Whole data set: some 33,000 sequences, median “E-score (-0.5 to 0.5)” near -0.035, cut for the highest 2% near 0.35. The list shows a part of the results.
What follows are sequences tested against T1, Pdr3 (UniProt P33200) (assay: PBM E-score (8-mer binding enrichment) (E-score (-0.5 to 0.5)); higher = stronger / more preferred TF binding; most listed sequences are background and not binding sites). Details: protein concentration: 200 nM; construct: GST-full length.
T1 sequence: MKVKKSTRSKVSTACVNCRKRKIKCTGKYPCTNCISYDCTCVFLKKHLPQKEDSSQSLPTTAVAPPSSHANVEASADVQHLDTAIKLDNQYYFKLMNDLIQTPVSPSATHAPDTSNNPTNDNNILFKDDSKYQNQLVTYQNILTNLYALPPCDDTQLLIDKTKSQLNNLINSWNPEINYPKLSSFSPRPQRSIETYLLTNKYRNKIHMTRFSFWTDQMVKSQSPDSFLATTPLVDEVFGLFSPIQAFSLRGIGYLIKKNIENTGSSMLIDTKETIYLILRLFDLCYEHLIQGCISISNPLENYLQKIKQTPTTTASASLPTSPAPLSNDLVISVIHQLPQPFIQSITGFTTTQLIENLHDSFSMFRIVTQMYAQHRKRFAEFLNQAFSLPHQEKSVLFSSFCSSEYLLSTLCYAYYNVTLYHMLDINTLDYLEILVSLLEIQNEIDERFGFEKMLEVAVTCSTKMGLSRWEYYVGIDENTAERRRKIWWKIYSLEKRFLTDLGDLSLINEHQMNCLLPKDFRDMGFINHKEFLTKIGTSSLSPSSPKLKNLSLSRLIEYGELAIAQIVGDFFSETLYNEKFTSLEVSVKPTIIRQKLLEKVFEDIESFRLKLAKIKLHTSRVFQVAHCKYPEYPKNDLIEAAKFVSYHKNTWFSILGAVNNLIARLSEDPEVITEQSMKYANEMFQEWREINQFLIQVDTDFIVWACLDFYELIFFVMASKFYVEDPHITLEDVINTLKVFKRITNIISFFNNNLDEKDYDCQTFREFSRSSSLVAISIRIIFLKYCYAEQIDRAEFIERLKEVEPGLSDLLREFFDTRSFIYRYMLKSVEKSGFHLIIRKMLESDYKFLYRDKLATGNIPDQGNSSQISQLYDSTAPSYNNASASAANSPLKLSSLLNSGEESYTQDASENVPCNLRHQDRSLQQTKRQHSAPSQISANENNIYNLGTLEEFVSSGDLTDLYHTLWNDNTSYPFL
Description: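 Universal 'all 10-mer' protein binding microarrays (Agilent AMADID 015681) probed with GST-tagged S. cerevisiae TFs (full-length or DBD) made by in vitro transcription/translation (PURExpress), about 100-200 nM. Bound TF was detected with fluorescent anti-GST. Each ungapped 8-mer (which stands for itself and its reverse complement) is scored by the PBM enrichment score (E-score), a modified Wilcoxon-Mann-Whitney statistic from -0.5 to +0.5, computed with the Universal PBM Analysis Suite. Scale: above 0.35 generally sequence-specific binding.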

| Sequence | PBM E-score |
| --- | --- |
| AACTGGGC | -0.102 |
| CGCTCTAG | -0.177 |
| CAGGACGA | -0.11 |
| AGGTTCCC | -0.0087 |
| AAACTGCA | -0.0386 |
| CAGTATTA | 0.0864 |
| ACGAGAAT | -0.0143 |
| AATTGACC | 0.0106 |
| CGCACTAG | -0.00713 |
| CTATCCCC | -0.0941 |
| GCAAGTGA | -0.199 |
| TAGGACAA | -0.185 |
| AGGTTACA | -0.166 |
| GCTGTTCA | -0.199 |
| ACAGAATA | 0.0104 |
| GAATACAC | -0.0519 |
| GTGCAGCA | -0.0699 |
| CATGGGCA | -0.0731 |
| AATTCACG | -0.0755 |
| CCCGTGGC | 0.233 |
| GCCACCTA | -0.158 |
| AATCCAAA | 0.0228 |
| ACATTACC | 0.0491 |
| ACGTAGCC | -0.265 |
| ATTTAAGA | -0.224 |

| Sequence | PBM E-score |
| --- | --- |
| GGGCTTAC | -0.116 |
| AAGGTGTG | 0.00561 |
| CCCCTCAA | -0.0149 |
| CTACGTCC | -0.141 |
| GTACCCCA | -0.0176 |
| ACAGGGCT | -0.316 |
| GTCTATCA | -0.161 |
| CCGGGGAC | 0.234 |
| ACAGGAAA | 0.142 |
| ACCTCGAA | -0.0326 |
| ACATGATA | 0.0144 |
| ATTAGCCA | -0.153 |
| CCAGAGTC | -0.0528 |
| GTAACGCA | 0.0163 |
| ATTCAGTA | 0.0302 |
| ACACGGGT | 0.0643 |
| ATGTCTTA | -0.187 |
| CCAGCTAA | -0.313 |
| CGAACGGA | 0.407 |
| CACATGAC | -0.204 |
| AATAATGT | 0.0445 |
| AAAAGCTG | -0.207 |
| ACAAACAT | -0.0528 |
| TCCCAAGA | 0.00106 |
| GTAATGCA | -0.142 |

| Sequence | PBM E-score |
| --- | --- |
| GACCGGCA | 0.0622 |
| GTGATGAA | -0.106 |
| ACCTACAC | -0.32 |
| GACATGGC | 0.0156 |
| CATACCCG | 0.188 |
| GGAATCAA | 0.286 |
| ACACGCCC | 0.0693 |
| CCAAGTGC | -0.00795 |
| GACCCGGA | 0.369 |
| ATAGTGAA | -0.197 |
| CGGACAAC | 0.33 |
| CCCGAGCA | 0.0918 |
| GAGTACAA | 0.0562 |
| CGGTTGAG | 0.169 |
| GAGTCGCC | -0.0489 |
| ACTATTCC | 0.327 |
| ATGTGCGG | 0.199 |
| GGTACTGA | -0.0986 |
| CGATTTAG | 0.174 |
| GGCACTAC | -0.186 |
| AAGTCGGT | -0.0517 |
| GCGCTAAA | -0.0228 |
| GTTCGTTA | -0.0499 |
| AGAACACG | -0.00391 |
| AACGCGTA | -0.0973 |

| Sequence | PBM E-score |
| --- | --- |
| GGCCGAGA | 0.31 |
| TGCTGGAA | -0.0333 |
| ACCTTGCC | -0.0637 |
| ACGCCAAC | -0.121 |
| GGCGTTGA | -0.128 |
| CAACACAG | -0.176 |
| GTTACTGA | 0.153 |
| CATGCAGA | -0.0568 |
| AATCGTAT | -0.153 |
| CTAGGCTA | -0.236 |
| AGCGGCAC | 0.118 |
| AGGTGTAG | -0.136 |
| CGCGTTTC | -0.0712 |
| AGCGGTGC | -0.166 |
| GATATTAC | 0.0213 |
| GTCTGGGA | -0.301 |
| AAATAGAA | -0.118 |
| CCCTTGGC | -0.22 |
| AAATATTC | 0.0659 |
| GGGTAACC | -0.0796 |
| CGAGTAAA | 0.103 |
| GTAGCATA | -0.118 |
| TTAAAAAA | -0.0789 |
| ACCCCGTG | 0.181 |
| CGTAATAC | -0.0503 |

| Sequence | PBM E-score |
| --- | --- |
| CCGCTGGA | 0.162 |
| ATTATTCG | 0.104 |
| CGAGCGAG | 0.23 |
| GTAAGGAA | -0.141 |
| GTCAAACA | -0.223 |
| CCCATGGC | 0.0769 |
| AATTTGCA | 0.0143 |
| GCGTAACA | -0.0848 |
| AGTTTGTG | -0.0043 |
| CTCATGAA | -0.123 |
| ATAAACAA | 0.0179 |
| CAGGGGCA | -0.113 |
| CTCCTTCA | -0.346 |
| AGGGATAT | -0.148 |
| CACACTAC | -0.0605 |
| AATTTAAC | 0.0759 |
| CCGTATCC | 0.266 |
| CATGTGCC | -0.0931 |
| ATCCACGG | 0.353 |
| GTCCCGTA | 0.159 |
| AGCAACCG | -0.0638 |
| CATCAGGG | 0.0403 |
| AACGGGCT | -0.0242 |
| GGTGATTA | 0.0475 |
| ACCCTCCA | -0.122 |

| Sequence | PBM E-score |
| --- | --- |
| AATCGGCC | 0.242 |
| CCGATCCA | 0.155 |
| AAAGTTTC | 0.0419 |
| GAGTCGCA | -0.306 |
| CAGGTGAG | -0.214 |
| GGCAATGA | -0.134 |
| CACGCTGG | -0.129 |
| CAAGTACA | -0.14 |
| CTGACTTC | 0.0429 |
| GGCCCCAC | 0.0764 |
| AAGGATTA | -0.145 |
| GTACATTA | -0.102 |
| AGGTTGAC | -0.239 |
| AACTTGCG | -0.0982 |
| ATCAGACA | -0.0927 |
| CTAGTTAC | -0.0807 |
| CCTTCTCC | -0.102 |
| CCAACGTC | -0.16 |
| CTCAATTA | -0.13 |
| CGACACGA | 0.197 |
| AACGAAGC | -0.0271 |
| ACCTGCAT | -0.0498 |
| CTAATAAG | -0.267 |
| ATCCTCAT | -0.195 |
| AGGCAGTC | 0.0698 |

| Sequence | PBM E-score |
| --- | --- |
| GGTCCGCA | 0.28 |
| AAACCTGT | -0.149 |
| ACTAGCAT | -0.0947 |
| ACATATTC | 0.0102 |
| CAGACGGA | 0.3 |
| CGCATACC | 0.219 |
| AAGGCATG | -0.23 |
| AGGCGTAA | -0.105 |
| AGATACCA | 0.129 |
| AGCGGAAA | 0.391 |
| ACTCTCAT | -0.148 |
| CCATGTAA | 0.075 |
| GGCTGTCA | -0.256 |
| ACAGGGAG | -0.156 |
| CCGAACTC | 0.077 |
| AGTGCAGG | -0.111 |
| TCAGGCCA | -0.0251 |
| AGTGTTAG | 0.0165 |
| AGTCATTG | -0.209 |
| CCACGGCA | 0.262 |
| TAAGGCAA | -0.112 |
| ATACCTTA | -0.144 |

Reference: the supplement of paper PMC3334620
